# Measured values taken from US12173004B2, “Pharmaceutical compositions comprising heterocycle fused gamma carboline prodrugs” (INTRA-CELLULAR THERAPIES, INC., priority 2017, dated 2024).
# Tested on: male Sprague-Dawley rats
# Test: Rat Tolerance/Dependence Study (28 day)
SMILES,predominant behavioral effects during the on-dose phase (morphine 30 mg/kg orally twice per day),"new behavioral and physical signs during the withdrawal phase (morphine 30 mg/kg orally twice per day, withdrawn Day 28)",tolerance and dependence (repeated morphine 30 mg/kg orally twice per day),"tolerance (0.3 and 3 mg/kg four times, subcutaneous dosing for 28 days)","physical dependence upon cessation of dosing (0.3 and 3 mg/kg s.c., 28 days)"
"CN1CC[C@]23c4c5ccc(O)c4O[C@H]2[C@@H](O)C=C[C@H]3[C@H]1C5 [Morphine, morphine, reference compound]","Straub tail, jumping, digging, increased body tone, increased locomotor activity, explosive movements and exopthalmus","piloerection, ataxia/rolling gait, wet dog shakes and pinched abdomen",clear signs of tolerance and dependence,,
"O=C1CN2c3c(cccc3[C@@H]3CN(CCCOc4ccc(F)cc4)CC[C@@H]32)N1 [Example 2, (6bR,10aS)-8-(3-(4-fluorophenoxy)propyl)-6b,7,8,9,10,10a-hexahydro-1H-pyrido[3′,4′:4,5]pyrrolo[1,2,3-de]quinoxalin-2(3H)-one]",,,,does not produce tolerance,not to produce a syndrome of physical dependence
